# Test results reported in article PMC9911399, “Two distinct binding modes provide the RNA-binding protein RbFox with extraordinary sequence specificity”.
# Where a chain is given by its changes, count along the chain named. Some of the results follow.
# T1: RBFOX1 RRM RbFoxmut (Fox-RRM*) (Homo sapiens, UniProt Q9NWB1 109-208, R118D;E147R;N151S;E152T)
# T1 sequence: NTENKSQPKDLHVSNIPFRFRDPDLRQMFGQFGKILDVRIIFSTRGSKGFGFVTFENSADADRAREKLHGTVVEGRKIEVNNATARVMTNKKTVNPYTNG
# B1: GUUAGCG (DNA:RNA)
# RNA: GGGAGACCGGAAUUCAGAUUGUCCGUUAGCGUUAAAUCCCGUCGUAGCCACCA
# DNA 1: CAATCTGAATTCCGGTCTCCC
# DNA 2: TGGTGGCTACGACGGGATT
# B2: GGCUGGU (DNA:RNA)
# RNA: B1 RNA with U26G, U27C, A28U, C30G, G31U
# DNA 1: CAATCTGAATTCCGGTCTCCC
# DNA 2: TGGTGGCTACGACGGGATT
# B3: UACAUUG (DNA:RNA)
# RNA: B1 RNA with G25U, U26A, U27C, G29U, C30U
# DNA 1: CAATCTGAATTCCGGTCTCCC
# DNA 2: TGGTGGCTACGACGGGATT
# B4: AAAAUUG (DNA:RNA)
# RNA: B1 RNA with G25A, U26A, U27A, G29U, C30U
# DNA 1: CAATCTGAATTCCGGTCTCCC
# DNA 2: TGGTGGCTACGACGGGATT
# B5: GUUUUAC (DNA:RNA)
# RNA: B1 RNA with A28U, G29U, C30A, G31C
# DNA 1: CAATCTGAATTCCGGTCTCCC
# DNA 2: TGGTGGCTACGACGGGATT
# B6: GAUUCUA (DNA:RNA)
# RNA: B1 RNA with U26A, A28U, G29C, C30U, G31A
# DNA 1: CAATCTGAATTCCGGTCTCCC
# DNA 2: TGGTGGCTACGACGGGATT
# B7: GCAUCAG (DNA:RNA)
# RNA: B1 RNA with U26C, U27A, A28U, G29C, C30A
# DNA 1: CAATCTGAATTCCGGTCTCCC
# DNA 2: TGGTGGCTACGACGGGATT
# B8: CAUCACU (DNA:RNA)
# RNA: B1 RNA with G25C, U26A, A28C, G29A, G31U
# DNA 1: CAATCTGAATTCCGGTCTCCC
# DNA 2: TGGTGGCTACGACGGGATT
# B9: AUUCUUU (DNA:RNA)
# RNA: B1 RNA with G25A, A28C, G29U, C30U, G31U
# DNA 1: CAATCTGAATTCCGGTCTCCC
# DNA 2: TGGTGGCTACGACGGGATT
# B10: UCGGUGG (DNA:RNA)
# RNA: B1 RNA with G25U, U26C, U27G, A28G, G29U, C30G
# DNA 1: CAATCTGAATTCCGGTCTCCC
# DNA 2: TGGTGGCTACGACGGGATT
# B11: GGCAUUG (DNA:RNA)
# RNA: B1 RNA with U26G, U27C, G29U, C30U
# DNA 1: CAATCTGAATTCCGGTCTCCC
# DNA 2: TGGTGGCTACGACGGGATT
# B12: GCUCAAA (DNA:RNA)
# RNA: B1 RNA with U26C, A28C, G29A, C30A, G31A
# DNA 1: CAATCTGAATTCCGGTCTCCC
# DNA 2: TGGTGGCTACGACGGGATT
# B13: UGCUUGG (DNA:RNA)
# RNA: B1 RNA with G25U, U26G, U27C, A28U, G29U, C30G
# DNA 1: CAATCTGAATTCCGGTCTCCC
# DNA 2: TGGTGGCTACGACGGGATT
# B14: UAGGUGA (DNA:RNA)
# RNA: GGGAGACCGGAAUUCAGAUUGUCCUAGGUGAUUAAAUCCCGUCGUAGCCACCA
# DNA 1: CAATCTGAATTCCGGTCTCCC
# DNA 2: TGGTGGCTACGACGGGATT
# B15: ACCGCCC (DNA:RNA)
# RNA: B1 RNA with G25A, U26C, U27C, A28G, G29C, G31C
# DNA 1: CAATCTGAATTCCGGTCTCCC
# DNA 2: TGGTGGCTACGACGGGATT
# B16: UGCGUAG (DNA:RNA)
# RNA: B14 RNA with A26G, G27C, G30A, A31G
# DNA 1: CAATCTGAATTCCGGTCTCCC
# DNA 2: TGGTGGCTACGACGGGATT
# B17: GUCUUUA (DNA:RNA)
# RNA: B1 RNA with U27C, A28U, G29U, C30U, G31A
# DNA 1: CAATCTGAATTCCGGTCTCCC
# DNA 2: TGGTGGCTACGACGGGATT
# B18: UUAAUUG (DNA:RNA)
# RNA: B1 RNA with G25U, U27A, G29U, C30U
# DNA 1: CAATCTGAATTCCGGTCTCCC
# DNA 2: TGGTGGCTACGACGGGATT
# B19: CUGCACU (DNA:RNA)
# RNA: B1 RNA with G25C, U27G, A28C, G29A, G31U
# DNA 1: CAATCTGAATTCCGGTCTCCC
# DNA 2: TGGTGGCTACGACGGGATT
# B20: UAAAGAU (DNA:RNA)
# RNA: B1 RNA with G25U, U26A, U27A, C30A, G31U
# DNA 1: CAATCTGAATTCCGGTCTCCC
# DNA 2: TGGTGGCTACGACGGGATT
# Target: T1, RBFOX1 RRM RbFoxmut (Fox-RRM*)
# Assay: EMSA; HiTS-Eq, 1 nM pool, 10 min; buffer printed only for the single-RNA assays: 10 mM Tris pH 7.5, 150 mM NaCl, 3.4 mM EDTA, 0.001% NP-40, 30 C
# Details: tags: His6 N-terminal (pET28a); label: 5' 32P
# Method in brief: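 These values rest on relative association constants, computed from read-count changes of each RNA species versus the control reaction and normalised to the cognate motif. Reads came from free RNA recovered by 8% native PAGE after purified RbFox RRM (wild type or mutant) at increasing concentrations was equilibrated for 10 min in 50 µL with 1 nM of a 5′-radiolabelled pool with 7 randomized nucleotides and DNA-annealed flanks.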
row,Binder,binding signal
1,B1,0.116 KA relative to UGCAUGU
2,B2,0.14 KA relative to UGCAUGU
3,B3,0.067 KA relative to UGCAUGU
4,B4,0.0836 KA relative to UGCAUGU
5,B5,0.0851 KA relative to UGCAUGU
6,B6,0.1 KA relative to UGCAUGU
7,B7,0.382 KA relative to UGCAUGU
8,B8,0.0917 KA relative to UGCAUGU
9,B9,0.0987 KA relative to UGCAUGU
10,B10,0.112 KA relative to UGCAUGU
11,B11,0.394 KA relative to UGCAUGU
12,B12,0.0655 KA relative to UGCAUGU
13,B13,0.257 KA relative to UGCAUGU
14,B14,0.1 KA relative to UGCAUGU
15,B15,0.0828 KA relative to UGCAUGU
16,B16,0.151 KA relative to UGCAUGU
17,B17,0.106 KA relative to UGCAUGU
18,B18,0.108 KA relative to UGCAUGU
19,B19,0.0814 KA relative to UGCAUGU
20,B20,0.057 KA relative to UGCAUGU
